Assay results from PubChem BioAssay AID540317 (National Center for Advancing Translational Sciences (NCATS), 2011).
Among all 390,000 compounds or so, about 2,200 (0.56%) were called active. Inconclusive results, whose numbers are uncertain, are shown with a selection of clear calls. The call rests on the fitted dose curve; in most records, active means well fitted inhibition curve with a large enough effect; inconclusive means small, poorly fitted or top-dose-only effect; inactive means no such curve, though single readings can be large or run the other way. A potency beside an inconclusive call is a rough fit, not a confirmed value.

Each compound was assayed against Chromobox protein homolog 1 (Homo sapiens) (UniProt P83916) (assay: HTS for Inhibitors of HP1-beta Chromodomain Interactions with Methylated Histone Tails). Details: AlphaScreen HP1-beta / biotin-H3K9me3 peptide binding; series mostly up to 114 µM.
In short: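 HP1-beta protein (50 nM final) preincubated 30 min at room temperature with biotinylated H3(1-18)K9me3 peptide (50 nM) in PBS pH 7.4, 0.01% Tween-20, then compound added for 30 min. AlphaScreen streptavidin donor/nickel chelate acceptor beads (10 ug/mL final), 30 min dark, luminescence read.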
Further: nearly all actives have a fitted effect of over 70% in size.
Potency means the concentration at half of the fitted maximal effect; tags describe the fitted curve by direction and shape.

UniProt P83916, sequence (P83916 whole entry, looked up): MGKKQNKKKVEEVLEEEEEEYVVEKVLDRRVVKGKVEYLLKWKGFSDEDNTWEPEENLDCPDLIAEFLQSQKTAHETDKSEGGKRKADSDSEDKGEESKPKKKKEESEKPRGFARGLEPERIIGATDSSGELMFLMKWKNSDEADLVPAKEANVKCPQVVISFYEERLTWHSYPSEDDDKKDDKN

SMILES	Potency
O=C(CSc1ccc([N+](=O)[O-])cc1)Nc1cccc(S(=O)(=O)Nc2ccccc2F)c1	inconclusive: 10 µM [inhibitor, full curve]
Cc1cc(C)nc(NNC2=CC(=[N+]3CCCCC3)CC(C)(C)C2)n1	inconclusive: 89.1 µM [inhibitor, single point]
O=[N+]([O-])c1cc(F)cc(F)c1Nc1ccc(F)cc1	inconclusive: 14.1 µM [inhibitor, partial curve, poor fit]
O=C(CSc1nccn1-c1ccc(Cl)cc1)N1CCCc2ccccc21	inconclusive: 35.5 µM [inhibitor, partial curve]
CCCCN1CCc2c([nH]c3c(C)cccc23)C1=O	inconclusive: 6.31 µM [inhibitor, full curve]
C=CCNCC#CCOc1ccc(OC)cc1	inconclusive: 28.2 µM [inhibitor, single point]
COc1cccc(CNC(=O)Nc2cccs2)c1	inactive
O=S(=O)(c1ccc2oc(=S)[nH]c2c1)N1CCOCC1	inactive
COc1ccc(S(=O)(=O)NCc2cccn2Cc2cccc(C)c2)cc1OC	inactive
O=C(CCCCn1cnc2c(=S)nc[nH]c21)Nc1ccc(C(=O)O)c(O)c1	active: 70.8 µM
NS(=O)(=O)c1ccc(N=Nc2ccc(O)c3ncccc23)cc1	inconclusive: 39.8 µM [inhibitor, single point]
O=[N+]([O-])c1ccc(/C=N/N2CCN(c3ccncc3S(=O)(=O)N3CCCCC3)CC2)cc1	inactive
Brc1ccc(C2Nc3cccc4cccc(c34)N2)s1	inconclusive: 39.8 µM [inhibitor, partial curve]
COc1ccc(NC(=O)CN(C)CC(=O)Nc2cccc3ccccc23)c(OC)c1	inconclusive: 15.8 µM [inhibitor, full curve, poor fit]
COc1cc(/C=C2/C(=O)N(c3ccc(C(=O)O)cc3)N=C2C)cc(OC)c1O	inconclusive: 20 µM [inhibitor, full curve]
COc1cc(/C=C2\SC(=S)N(Nc3ncc(C(F)(F)F)cc3Cl)C2=O)ccc1O	inconclusive: 17.8 µM [inhibitor, full curve, poor fit]
COc1ccccc1CNC(=O)Nc1ccc2c(c1)N(C)C(=O)c1ccccc1S2	inconclusive: 20 µM [inhibitor, single point]
O=C(NCCCN1CCCC1)c1ccc2c(c1)N(Cc1ccccc1)CCS2	inconclusive: 44.7 µM [inhibitor, partial curve, poor fit]
CC(C)c1ccc(N2C(=O)/C(=C/N(C)C)SC2=S)cc1	inconclusive: 20 µM [inhibitor, full curve]
COc1ccc(N2CCN(S(=O)(=O)CCNC(=O)/C=C/c3ccccc3)CC2)cc1	inactive
COc1ccc(/C=C/C(=O)c2cc(Cl)ccc2O)c(OC)c1	inconclusive: 17.8 µM [inhibitor, full curve]
O=C1c2ccccc2C(=O)c2cc(N3CCCCC3)ccc21	inconclusive: 44.7 µM [inhibitor, partial curve, poor fit]
COc1ccc2ccccc2c1C(=O)/C=C\c1ccoc1	inconclusive: 20 µM [inhibitor, full curve, poor fit]
CN1CCC(=C2c3ccccc3C=Cc3ccccc32)CC1	inactive

SMILES	Potency
CCN(CC)CCCSc1nc2ccccc2s1	inconclusive: 15.8 µM [inhibitor, full curve]
CCOC(=O)c1ccc(C(=S)N2CCCC2)cc1	inconclusive: 10 µM [inhibitor, full curve]
CCCCN=C1NN=C(c2ccc(C)c(C)c2)CS1	inconclusive: 12.6 µM [inhibitor, full curve, poor fit]
Cc1csc2nc(COC(=O)c3ccc(NC(=O)c4ccccc4Br)cc3)cc(=O)n12	inactive
O=S(=O)(NC1CC1)c1ccc(S(=O)(=O)N(Cc2ccccn2)C2CCCC2)cc1	inactive
COc1ccc(C(=O)N/N=C/c2c[nH]c3ccccc23)cc1	inactive
CCC(=O)n1nc(-c2cccnc2)nc1NCc1ccccc1	inconclusive: 100 µM [inhibitor, single point]
Cc1cccc(OCC(=O)N2CCC(N3CCCCCC3)CC2)c1	inconclusive: 39.8 µM [inhibitor, partial curve]
CC1CN(CCCCOc2cccc(Oc3ccccc3)c2)CC(C)O1 (stereo not given)	inconclusive: 20 µM [inhibitor, full curve]
CCN1c2ccccc2-c2nc(SCC(=O)Nc3cc(C)c(Cl)cc3OC)ncc2S1(=O)=O	inconclusive: 79.4 µM [inhibitor, single point]
COc1ccc(C2/C=C\CN(CC3CC3)C(Cc3ccccc3)C(=O)N2Cc2ccc(F)cc2)cc1 (stereo not given)	inactive
CC(C)CN1C(=O)/C(=C/c2ccco2)NC1=S	inconclusive: 50.1 µM [inhibitor, partial curve]
COC(=O)c1c(-c2ccccc2)csc1N	inconclusive: 10 µM [inhibitor, partial curve]
Clc1ccc(Cl)c(OCCCCNCc2ccccc2)c1	inconclusive: 44.7 µM [inhibitor, partial curve, poor fit]
O=C(/C=C/c1ccc(O)c(O)c1)OC(Cc1ccc(O)c(O)c1)C(=O)O (stereo not given)	inconclusive: 50.1 µM [inhibitor, partial curve, poor fit]
O=C(COc1ccc(F)cc1)NCc1ccc2c(c1)CCN2C(=O)c1ccc(F)cc1	inactive
Cc1cc(-n2c(C)nc3ccccc3c2=O)ccc1NC(=O)c1cccc([N+](=O)[O-])c1C	inactive
O=C(Nc1c(C(=O)O)[nH]c2ccccc12)c1cccc(C(F)(F)F)c1	inconclusive: 70.8 µM [inhibitor, partial curve]
CC1=NN(c2cccc(C(=O)O)c2)C(=O)/C1=C\C=C/c1ccccc1	inconclusive: 31.6 µM [inhibitor, partial curve, poor fit]
CCOC(=O)c1ccc(-n2c(=S)sc3c(=O)[nH]c(C)nc32)cc1	inactive
CCc1ccc(C(=O)NC(=S)Nc2ccc(N3CCOCC3)cc2)cc1	inconclusive: 12.6 µM [inhibitor, full curve]
CC(C)C(=O)N1CCN(c2ccc([N+](=O)[O-])c(NC(C)c3ccccc3)c2)CC1 (stereo not given)	inconclusive: 35.5 µM [inhibitor, partial curve]
CC(=O)c1ccc(COC(=O)Cc2ccc([N+](=O)[O-])cc2)cc1	inactive
COCCNC(=S)NCc1cccs1	inactive

SMILES	Potency
Cc1ccc(C(=O)c2cc([N+](=O)[O-])ccc2N2CCOCC2)cc1C	inconclusive: 31.6 µM [inhibitor, single point]
Cc1ccc(C(=O)N/C(=C\c2ccco2)C(=O)N2CCCCC2)cc1	inconclusive: 79.4 µM [inhibitor, partial curve, poor fit]
CCc1ccc(NC(=O)C2(c3cccs3)CCOCC2)cc1	inactive
Cc1ccc(NC(=O)c2ccc(Cl)c(N3C(=O)C=CC3=O)c2)cc1	inconclusive: 5.01 µM [inhibitor, full curve, poor fit]
CN1CCc2nc(SCC(=O)Nc3cccc(F)c3)c(C#N)c(-c3cccs3)c2C1	inactive
COc1cccc(-c2csc(N3CCN(C(=O)C4CCCCC4)CC3)n2)c1	inactive
CCOC(=O)c1c(-c2ccc(C)o2)csc1NC(=S)NC(=O)c1ccccc1Br	inconclusive: 35.5 µM [inhibitor, partial curve]
Cc1cc(C(=O)OCC(=O)N2CC(=O)Nc3ccccc32)c(C)n1-c1ccccc1	inconclusive: 56.2 µM [inhibitor, single point]
CN1c2cccc3cccc(c23)N(C)C1c1cccs1	inconclusive: 22.4 µM [inhibitor, partial curve, poor fit]
C[C@H](NC(=O)[C@@H]1Cc2ccccc2CN1C(=O)OC(C)(C)C)C(=O)NCc1ccco1	inactive
Cc1noc(NS(=O)(=O)c2ccc(NC(=O)COc3ccccc3Br)cc2)c1C	inactive
CC1CCc2[nH]c3ccc(C(=O)N(C)CC(=O)Nc4cccc(F)c4)cc3c2C1 (stereo not given)	inconclusive: 50.1 µM [inhibitor, partial curve]
COc1ccccc1/C=C/C=N/n1c(-c2ccc(Cl)cc2)n[nH]c1=S	inconclusive: 17.8 µM [inhibitor, partial curve]
O=C(Cc1c[nH]c2ccccc12)Nc1ccc(N2CCOCC2)cc1	inactive
Cc1ccc(NC(=O)CN2CCc3ccccc3C2)cc1C	inconclusive: 22.4 µM [inhibitor, single point]
NNCCc1ccccc1	inactive
CN(C)c1ccc(NC(=O)/C=C/c2c(Cl)cccc2Cl)cc1	inconclusive: 14.1 µM [inhibitor, partial curve]
CN1CCN(CC(=O)N2CCn3c4c(c5cc(C6CCCCC6)ccc53)CCCC42)CC1 (stereo not given)	inconclusive: 56.2 µM [inhibitor, single point]
O=C(CC12CC3CC(CC(C3)C1)C2)N/N=C/c1ccncc1	inconclusive: 39.8 µM [inhibitor, single point]
COc1ccc(-c2csc(=NCCO)n2-c2ccccc2)cc1	inconclusive: 31.6 µM [inhibitor, partial curve]
COC(=O)C1=CN(c2ccc(OC)cc2)C=C(C(=O)OC)C1c1ccc(C)c([N+](=O)[O-])c1	inactive
CC1=NN(c2ccccc2)C(=O)C1N=Nc1ccc(N)cc1 (stereo not given)	inconclusive: 10 µM [inhibitor, partial curve, poor fit]
